Experimental data: article PMC4336329 (PLoS ONE, 2015)
In all, about 310,000 compounds went through this assay and about 14,000 (4.5%) showed an effect of 50% or more. Effects have a minus sign here. Some of the results follow.

Target: human ether-à-go-go-related gene (hERG) potassium channel (human, UniProt Q12809)
Experiment: primary screen, population patch clamp on CHO cells stably expressing hERG
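Also: peak tail current of the secondary pulse compared with the same well before compound.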

Chain of human ether-à-go-go-related gene (hERG) potassium channel (Q12809 whole entry, looked up): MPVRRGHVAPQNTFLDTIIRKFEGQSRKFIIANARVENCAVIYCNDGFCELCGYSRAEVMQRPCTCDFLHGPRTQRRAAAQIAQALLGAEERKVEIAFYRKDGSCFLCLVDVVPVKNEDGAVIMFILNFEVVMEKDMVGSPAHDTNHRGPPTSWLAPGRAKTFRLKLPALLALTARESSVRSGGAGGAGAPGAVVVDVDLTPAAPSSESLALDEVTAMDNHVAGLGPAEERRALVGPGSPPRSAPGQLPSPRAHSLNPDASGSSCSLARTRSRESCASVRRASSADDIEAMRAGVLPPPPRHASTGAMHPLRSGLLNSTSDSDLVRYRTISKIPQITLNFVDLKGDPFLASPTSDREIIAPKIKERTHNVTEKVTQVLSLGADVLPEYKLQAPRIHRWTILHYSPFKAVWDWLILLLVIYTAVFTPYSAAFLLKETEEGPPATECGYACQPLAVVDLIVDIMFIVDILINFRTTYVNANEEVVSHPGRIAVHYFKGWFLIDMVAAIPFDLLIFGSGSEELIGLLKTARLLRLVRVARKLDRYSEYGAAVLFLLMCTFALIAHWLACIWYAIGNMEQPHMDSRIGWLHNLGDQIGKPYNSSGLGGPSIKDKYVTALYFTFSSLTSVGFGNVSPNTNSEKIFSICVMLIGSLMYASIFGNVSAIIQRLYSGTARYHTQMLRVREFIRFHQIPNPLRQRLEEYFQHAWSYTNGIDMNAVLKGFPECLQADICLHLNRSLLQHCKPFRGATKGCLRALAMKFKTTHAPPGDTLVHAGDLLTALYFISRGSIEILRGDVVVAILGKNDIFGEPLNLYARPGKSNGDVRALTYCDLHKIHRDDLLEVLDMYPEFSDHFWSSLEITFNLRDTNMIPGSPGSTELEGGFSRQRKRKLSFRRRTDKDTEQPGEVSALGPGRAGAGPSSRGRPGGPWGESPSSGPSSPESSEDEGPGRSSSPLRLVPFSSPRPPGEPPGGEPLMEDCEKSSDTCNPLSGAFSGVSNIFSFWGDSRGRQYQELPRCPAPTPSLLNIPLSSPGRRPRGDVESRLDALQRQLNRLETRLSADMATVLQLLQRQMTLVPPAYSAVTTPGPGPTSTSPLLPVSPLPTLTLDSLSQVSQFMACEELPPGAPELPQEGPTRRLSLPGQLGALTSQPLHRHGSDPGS

SMILES | hERG current change (%, negative = inhibition) at 10uM [%]
O=C(N/N=C1\CC(c2ccccc2)Oc2ccccc21)c1cccnc1 (stereo not shown) | 1.76
O=C(O)c1ccc(/C=N/NC(=O)c2ccc(NS(=O)(=O)c3cccs3)cc2)cc1 | 5.79
O=C(c1cccc(Cl)c1)N1CCN(c2ccccn2)CC1 | -12.9
CCCC(=O)Nc1c2c(nc3ccccc13)N(c1ccccc1)CC2 | -1.55
COC(=O)c1cccc2nc3c(C(C)O)cccc3nc12 (stereo not shown) | 4.33
CCOCCCNC(=O)c1cccc(NC(=O)C2=C(C)OCCS2)c1 | 8.5
COC(C/C=C\[C@@H](O)[C@@H](C)OCc1ccccc1)OC | -3.91
CCc1cc2c(=O)n(CC(C)C)cnc2s1 | 2.98
Cc1cc(C(=O)NN=C2CCCCCC2)c(C)o1 | -2.82
N#CCc1nc2ccccc2c(=O)[nH]1 | -5.99
O=c1[nH]c(=O)n(CCC2=CCCCC2)c(O)c1C=NCCN1CCNCC1 | -11.7
COc1ccc(/C=C(\C#N)C(=O)OCC(=O)NCc2ccco2)cc1 | 12.6
Cc1cccc(OCC(=O)Nc2cc(C)ccc2O)c1 | 12.4
C(=N\N(Cc1ccccc1)c1ccccc1)/c1ccco1 | -11.5
CCOc1cccc2cc(C(=O)Oc3ccc(OC)cc3)c(=O)oc12 | 5.25
COc1cc(OC)c(-c2c3cc(O)c(=O)cc-3oc3cc(O)c(O)cc23)cc1OC | 27.6
CCOC(=O)/C(N)=C/c1ncc(C(F)(F)F)cc1Cl | -2.34
CC1(C)CC(=O)N(CC(=O)NC2CCCC2)c2ccccc2S1(=O)=O | 11.7
CSCC[C@H](NC(=O)[C@H](Cc1ccccc1)n1c(=O)[nH]c2ccccc2c1=O)C(=O)N1CCC(C(=O)O)CC1 | 4.98
CC(Oc1ccc2c3c(c(=O)oc2c1)CCCC3)C(=O)NCCCn1ccnc1 (stereo not shown) | -2.45
CC(Cc1ccsc1)NC(=O)CCc1nnc(CCc2ccccc2)o1 (stereo not shown) | 10.6
CC(=NCCN(C)C)c1c(O)n(Cc2ccccc2)c(=O)[nH]c1=O | -1.7
CCCn1c(SCC(=O)NC(=O)NC(C)(C)C)n[nH]c1=O | 22.7

SMILES | hERG current change (%, negative = inhibition) at 10uM [%]
CC(C)CCN1CCN(Cc2cn[nH]c2C2CCCCC2)CC1CCO (stereo not shown) | 1.14
Cc1cccc(OC(=O)n2c(=S)oc3cc(Cl)ccc32)c1 | 18.3
CN(C)c1ccc(/C=N/NC(=O)C(O)c2ccc(Br)cc2)cc1 (stereo not shown) | 11.9
N#Cc1ccc(CO/N=C/c2ccccc2)cc1 | -1.65
O=C(NCC(=O)N1CCCC(C(F)(F)F)C1)c1ccc(Br)o1 (stereo not shown) | -13.3
Cc1ccc2cc(C#N)c(N3CCN(C(=O)c4cccs4)CC3)nc2c1 | -34.2
COc1ccc(F)c(CN2CCC(CO)(Cc3cccc(C(F)(F)F)c3)CC2)c1 | -58.4
Cc1ccc(S(=O)(=O)N2CCN(C(=O)COC(=O)C3CCC3)CC2)c(C)c1 | -30.5
Cc1onc(-c2ccccc2)c1C(=O)NCc1cccs1 | -6.41
COc1ccc(NC(=O)c2cc3ccccc3oc2=O)c(OC)c1 | 29.2
OCC1(Cc2cccc(Cl)c2)CCCN(Cc2cnn(-c3ccccc3)c2)C1 (stereo not shown) | -54.7
COc1ccccc1OCCCn1cc(C(C)=O)c2ccccc21 | -10.5
C/C(=N\NC(=O)C1COc2ccccc2O1)c1cc2ccccc2o1 (stereo not shown) | 19.7
Cc1cc(C(=O)N/N=C/c2cccs2)n[nH]1 | 18.9
COc1ccc(N2C3=C(CC4=C2CCCC4=O)C(=O)CCC3)cc1 | -21.3
COc1ccccc1NC(=O)Nc1ccc(Cl)c(S(=O)(=O)Nc2ccccc2OC)c1 | 11.2
Cc1ccc2oc(C(=O)Nc3nnc(CC(C)C)s3)c(C)c2c1 | 11.5
O=C(CNC(=O)c1ccco1)OCC(=O)c1ccc2c(c1)CCCC2 | 0.0827
Cc1cccc(S(=O)(=O)c2c(N)n(/N=C/c3ccccc3)c3nc4ccccc4nc23)c1 | 1.87
O=C(CCC(=O)N1CC2C[C@@H](C1)Cn1c2cccc1=O)NCCc1ccccc1F | 0.0359
Cc1nc2ccccc2c(=O)n1Cc1ccc([N+](=O)[O-])cc1 | -74.4
Cc1ccc(NC(=O)CSc2nc3ccccc3c(=O)n2CCCC(=O)NCC2CCCO2)cc1 (stereo not shown) | -0.641
CCn1cc(C(=O)O)c(=O)c2cc(S(=O)(=O)N3CCCCCC3)ccc21 | 10.7
